The supplement of paper PMC9446081
The whole screen tested about 39,000 compounds, of which about 220 (0.56%) showed activity. The list shows a part of the results.

The compounds below were run on Escherichia coli K-12 BW25113 (assay: relative growth (OD600 normalised to plate interquartile mean) (fraction); higher = less growth inhibition, active = 0.2 or less). Conditions: 50 µM; LB; incubation time: overnight (16-24 h).
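Also: static incubation at 37 °C against the wild-type strain, values averaged over two biological replicates.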

SMILES | relative growth
C[C@H](CO)N1C[C@H](C)[C@@H](CN(C)C(=O)Nc2cccc3ccccc23)Oc2ccc(NC(=O)NC3CCCCC3)cc2CC1=O | inactive: 1.01
O=C(C[C@H]1CC[C@@H](NC(=O)Cc2ccccn2)[C@H](CO)O1)NCCCN1CCOCC1 | inactive: 0.98
O=C(C[C@H]1CC[C@@H](NC(=O)Cc2ccccn2)[C@@H](CO)O1)NCCc1ccncc1 | inactive: 1.02
CC/N=c1\sc(C(=O)OC)cc(=O)n1CC | inactive: 1.04
C[C@H](CO)N1C[C@H](C)[C@H](CN(C)S(=O)(=O)c2cccs2)OCCCC[C@H](C)Oc2ccc(NS(=O)(=O)c3cn(C)cn3)cc2C1=O | inactive: 0.897
C[C@H](CO)N1C[C@H](C)[C@H](CN(C)C(=O)Nc2cccc3ccccc23)OCc2cn(nn2)CCCC1=O | inactive: 1
COC(=O)c1cccc(OC(N)=O)c1 | inactive: 0.994
COc1ccc(S(=O)(=O)Nc2ccc3c(c2)C(=O)N([C@H](C)CO)C[C@@H](C)[C@H](CN(C)C(=O)Nc2ccc(C(F)(F)F)cc2)OCCCC[C@@H](C)O3)cc1 | inactive: 0.859
COCCOC(=O)N1C(=O)[C@@]2(c3ccccc31)[C@H](c1ccc(OCCO)cc1)N1[C@H](c3ccccc3)[C@H](c3ccccc3)OC(=O)[C@H]1[C@@H]2C(=O)N1CCCCCCC1 | inactive: 1.07
C[C@@H]1CCCCO[C@H](CN(C)C(=O)Nc2ccc(C(F)(F)F)cc2)[C@@H](C)CN([C@@H](C)CO)C(=O)c2cc(NS(=O)(=O)c3cccs3)ccc2O1 | inactive: 0.988
CC(C)NC(=O)N(C)C[C@H]1Oc2ccc(NS(=O)(=O)c3ccc(F)cc3)cc2C(=O)N([C@H](C)CO)C[C@H]1C | inactive: 1.02
CCS(=O)(=O)N1CC[C@]2(CC1)CN([C@H](CO)c1[nH]c3cc(ccc3c12)OC)S(=O)(=O)c1ccc(cc1)C | inactive: 1.04
COc1ccc(CN(C)C[C@@H]2OCCCC[C@H](C)Oc3ccc(NC(=O)C4CCCCC4)cc3C(=O)N([C@@H](C)CO)C[C@@H]2C)cc1 | inactive: 0.996
C[C@H](CO)N1C[C@H](C)[C@H](CN(C)S(=O)(=O)c2cccc(F)c2)Oc2ncc(C#Cc3ccccc3)cc2C1=O | inactive: 0.869
C[C@H](CO)N1C[C@H](C)[C@H](CN(C)C(=O)Nc2cccc3ccccc23)Oc2ccc(NS(=O)(=O)c3ccccc3)cc2C1=O | inactive: 1.02
COc1ccc(CN(C)C[C@@H]2Oc3ccc(NC(=O)Cn4cnnn4)cc3C(=O)N([C@H](C)CO)C[C@@H]2C)cc1 | inactive: 1.03
COc1ccc(NC(=O)Nc2ccc3c(c2)CC(=O)N([C@H](C)CO)C[C@@H](C)[C@@H](CN(C)Cc2ccc(-c4ccccc4)cc2)O3)cc1 | inactive: 1.02
CNCCCN1c2ccccc2CCc2ccccc21.Cl | inactive: 0.982
COc1ccc(S(=O)(=O)N(C)C[C@H]2Oc3cc(Br)ccc3S(=O)(=O)N([C@H](C)CO)C[C@H]2C)cc1 | inactive: 1
C[C@@H]1CNC(=O)CCO1 | inactive: 0.998
CC(C)CC#Cc1ccc2c(c1)O[C@H](CN(C)C(=O)c1ccccn1)[C@@H](C)CN([C@H](C)CO)S2(=O)=O | inactive: 0.992

SMILES | relative growth
CC(C)C#Cc1ccc2c(c1)O[C@H](CN(C)C(=O)c1cnccn1)[C@@H](C)CN([C@@H](C)CO)S2(=O)=O | inactive: 0.991
C[C@@H]1CN([C@@H](C)CO)S(=O)(=O)c2ccc(C#C[C@@H](C)O)cc2O[C@H]1CN(C)C(=O)c1ccncc1 | inactive: 0.996
CNC[C@@H]1Oc2c(NS(=O)(=O)c3cn(C)cn3)cccc2C(=O)N([C@@H](C)CO)C[C@@H]1C | inactive: 0.926
NC1CCN(C(=O)Nc2nncs2)CC1 | inactive: 0.977
C[C@@H]1CCCCO[C@@H](CN(C)S(=O)(=O)c2ccccc2)[C@H](C)CN([C@H](C)CO)C(=O)c2cc(NC(=O)Nc3ccc(C(F)(F)F)cc3)ccc2O1 | inactive: 1.03
C[C@@H]1CN([C@H](C)CO)C(=O)c2cc(NS(C)(=O)=O)ccc2O[C@H]1CN(C)C(=O)NC1CCCCC1 | inactive: 0.999
C[C@@H]1CCCCO[C@@H](CN(C)C(=O)Nc2cccc3ccccc23)[C@H](C)CN([C@@H](C)CO)C(=O)c2cc(NC(=O)c3ccncc3)ccc2O1 | inactive: 1
COc1ccc(NC(=O)Nc2ccc3c(c2)CC(=O)N([C@H](C)CO)C[C@H](C)[C@@H](CN(C)C(=O)Nc2ccc(C(F)(F)F)cc2)O3)cc1 | inactive: 1
C[C@H](CO)N1C[C@H](C)[C@H](CN(C)Cc2ccc(C(=O)Nc3ccccc3N)cc2)Oc2c(NC(=O)Nc3ccc4c(c3)OCO4)cccc2C1=O | inactive: 1.02
COc1ccc(S(=O)(=O)N(C)C[C@H]2OCCCC[C@@H](C)Oc3ccc(NC(=O)CCCCCC(=O)Nc4ccccc4N)cc3C(=O)N([C@H](C)CO)C[C@@H]2C)cc1 | inactive: 1.01
C[C@@H]1O[C@H]2Oc3c(-c4ccc(O)c(O)c4)oc4cc(O)c(c(O)c4c3=O)-c3cc(ccc3O)/C=C\C(=O)OC[C@H]3O[C@@H](O[C@H]([C@H]1O)[C@H]2O)[C@H](O)[C@@H](O)[C@@H]3O | inactive: 0.993
CN1CCN(C(=O)C[C@H]2C=C[C@H](NC(=O)c3ccc4c(c3)OCO4)[C@H](CO)O2)CC1 | inactive: 1
C[C@@H]1CN([C@H](C)CO)S(=O)(=O)c2ccc(-c3ccncc3)cc2O[C@H]1CN(C)Cc1ccc(Oc2ccccc2)cc1 | inactive: 1.03
CCCCCCCCC(=O)O | inactive: 0.881
O=C(CCCCn1c(=O)[nH]c2ccccc2c1=O)N1CCN(c2ncccn2)CC1 | inactive: 1.01
CCn1cc(-c2ccc3ccccc3n2)c(=S)c2ccccc21 | inactive: 0.999
CN1CCN(C(=O)C[C@H]2C=C[C@H](NC(=O)Cc3ccccn3)[C@@H](CO)O2)CC1 | inactive: 1.03
CCS(=O)(=O)Nc1ccc2c(c1)C(=O)N(C)C[C@H](OC)[C@H](C)CN(Cc1ccccn1)[C@H](C)CO2 | inactive: 0.999
CCOC(=O)c1sc(=NN)[nH]c1C | inactive: 1.02
C[C@@H]1OC2=C(Cl)C(=O)N3CCC[C@H]3C[C@@]21O | inactive: 1.04
COc1ccc(NC(=O)N(C)C[C@H]2Oc3ccc(NC(=O)Cn4cnnn4)cc3C(=O)N([C@H](C)CO)C[C@@H]2C)cc1 | inactive: 0.982

SMILES | relative growth
CC(OC1OCCN(C(C)c2nc(=O)[nH][nH]2)C1c1ccc(F)cc1)c1cc(C(F)(F)F)cc(C(F)(F)F)c1 (stereo not drawn) | inactive: 1.07
COc1ccc(S(=O)(=O)Nc2ccc3c(c2)C(=O)N([C@@H](C)CO)C[C@H](C)[C@@H](CN(C)Cc2ccccc2)OCCCC[C@H](C)O3)cc1 | inactive: 1.01
CNC[C@H]1Oc2ccc(NS(=O)(=O)c3cn(C)cn3)cc2CC(=O)N([C@@H](C)CO)C[C@@H]1C | inactive: 1.01
CCCNC(=O)C[C@@H]1CC[C@H]2[C@H](COc3ccc(NS(=O)(=O)c4ccccc4C)cc3C(=O)N2C)O1 | inactive: 0.994
C[C@@H]1CN([C@@H](C)CO)C(=O)c2cc(NC(=O)Nc3ccc(F)cc3)ccc2O[C@@H](C)CCCCO[C@H]1CN(C)C(=O)Cc1ccccc1 | inactive: 0.999
Cc1ccc(S(=O)(=O)Nc2ccc3c(c2)CC(=O)N([C@@H](C)CO)C[C@H](C)[C@@H](CN(C)S(=O)(=O)c2ccccc2)O3)cc1 | inactive: 0.975
C[C@@H]1CN([C@@H](C)CO)C(=O)c2cccc(NC(=O)C3CCOCC3)c2O[C@H]1CN(C)S(=O)(=O)c1ccccc1 | inactive: 0.975
C/C=C/c1ccc2c(c1)O[C@@H](CN(C)Cc1ccc(C(=O)O)cc1)[C@H](C)CN([C@H](C)CO)S2(=O)=O | inactive: 1.01
C[C@H](CO)N1C[C@H](C)[C@H](CN(C)C(=O)c2ccc3c(c2)OCO3)Oc2ncc(C#CCN(C)C)cc2C1=O | inactive: 1.01
NCCSC12CC3CC(CC(C3)C1)C2 | inactive: 0.9
FC(F)(F)c1cc(NC(=S)Nc2ccc(Br)cc2-c2nn[nH]n2)cc(C(F)(F)F)c1 | inactive: 0.915
Cn1nc(-c2ccccn2)nc2c(=O)n(C)c(=O)nc1-2 | inactive: 0.933
O=C(C[C@H]1C[C@H]2c3cc(NC(=O)c4ccc5c(c4)OCO5)ccc3O[C@H]2[C@H](CO)O1)NCCN1CCCCC1 | inactive: 0.997
COCCc1nnc(CCOC)n1N | inactive: 0.987
COc1ccc2c3c([nH]c2c1)[C@@H](CO)N(C[C@]13CCN(CC1)Cc1cc(on1)-c1ccccc1)C(=O)Nc1ccc(cc1)F | inactive: 1.03
C[C@@H]1CN([C@@H](C)CO)C(=O)c2c(c3ccccc3n2C)-c2ccccc2CO[C@@H]1CN(C)Cc1ccccc1C(F)(F)F | inactive: 1.03
C[C@H]1CN([C@@H](C)CO)C(=O)c2cc(NS(C)(=O)=O)ccc2O[C@@H]1CN(C)S(=O)(=O)c1ccc(F)cc1 | inactive: 0.989
C[C@@H]1CN([C@@H](C)CO)C(=O)c2cccc(NC(=O)c3ccncc3)c2O[C@@H]1CN(C)Cc1ccc2c(c1)OCO2 | inactive: 1.02
Cc1noc(C)c1NC(=O)N(C)C[C@@H]1Oc2c(NC(=O)c3cnccn3)cccc2C(=O)N([C@H](C)CO)C[C@@H]1C | inactive: 0.991
CCCN(C)C[C@H]1OCCCC[C@@H](C)Oc2ccc(NS(=O)(=O)c3ccc(Cl)cc3)cc2C(=O)N([C@@H](C)CO)C[C@H]1C | inactive: 0.95
C[C@H](CO)N1C[C@H](C)[C@H](CN(C)C(=O)C2CCOCC2)Oc2cc(C3=CCCCC3)ccc2S1(=O)=O | inactive: 0.988
